This is an account of results in publication PMC8399847, “Hybrid Quinolinyl Phosphonates as Heterocyclic Carboxylate Isosteres: Synthesis and Biological Evaluation against Topoisomerase 1B (TOP1B)” (Pharmaceuticals, 2021).

Structures are written as SMILES.

In general, inhibition refers to the percentage by which the read-out fell short of the control.

One assay addresses T1, human TOP1B (hTOP1B) (Homo sapiens, UniProt P11387).
T1 sequence (P11387 1-765): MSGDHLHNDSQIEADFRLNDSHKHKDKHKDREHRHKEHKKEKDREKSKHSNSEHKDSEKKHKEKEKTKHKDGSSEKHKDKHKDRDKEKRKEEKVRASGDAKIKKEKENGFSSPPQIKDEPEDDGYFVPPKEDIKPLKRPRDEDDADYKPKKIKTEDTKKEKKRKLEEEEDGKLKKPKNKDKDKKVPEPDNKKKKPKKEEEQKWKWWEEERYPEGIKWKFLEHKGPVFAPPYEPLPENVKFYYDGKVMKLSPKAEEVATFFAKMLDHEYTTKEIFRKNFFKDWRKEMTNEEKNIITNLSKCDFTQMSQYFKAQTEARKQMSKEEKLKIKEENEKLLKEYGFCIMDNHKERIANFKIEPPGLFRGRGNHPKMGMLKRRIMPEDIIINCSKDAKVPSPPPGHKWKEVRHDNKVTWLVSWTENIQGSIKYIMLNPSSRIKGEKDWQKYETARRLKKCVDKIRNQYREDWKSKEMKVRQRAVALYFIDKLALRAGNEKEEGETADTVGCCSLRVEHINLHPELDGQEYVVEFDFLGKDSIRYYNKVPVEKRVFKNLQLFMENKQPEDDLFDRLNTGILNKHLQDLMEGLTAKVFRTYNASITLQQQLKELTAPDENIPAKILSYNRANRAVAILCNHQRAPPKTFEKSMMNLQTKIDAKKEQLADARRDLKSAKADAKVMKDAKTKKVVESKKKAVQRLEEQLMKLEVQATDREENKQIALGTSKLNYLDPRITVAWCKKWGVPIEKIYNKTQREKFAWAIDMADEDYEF
Description: biochemical. Conditions: read-out: % Inhibition hTOP1B 15 s.
For the molecule `CCOP(=O)(OCC)c1cccc2c(-c3ccccc3)cc(-c3ccccc3)nc12` [7a, Diethyl (2,4-diphenylquinolin-8-yl)phosphonate], the inhibition at 100 µM was 20%.

Turning to `CCOP(=O)(OCC)c1cccc2c(-c3ccccc3)cc(-c3ccc4ccccc4c3)nc12` [7e, Diethyl (2-(naphthalen-2-yl)-4-phenylquinolin-8-yl)phosphonate], the inhibition at 100 µM turned out to be 17%.

As for `CCOP(=O)(OCC)c1ccc2nc(-c3ccc(F)c(F)c3)cc(-c3ccc(F)cc3)c2c1` [7u, Diethyl (2-(3,4-difluorophenyl)-4-(4-fluorophenyl)quinolin-6-yl)phosphonate], the inhibition at 100 µM was determined as 27%.

For `CC(C)OP(=O)(OC(C)C)c1cccc2c(-c3ccc(F)cc3)cc(-c3ccc(F)cc3)nc12` [7n, Diisopropyl (2,4-bis(4-fluorophenyl)quinolin-8-yl)phosphonate], the inhibition at 100 µM stood at 59%.

In the case of `Cc1ccc(-c2cc(-c3ccc(F)cc3)nc3c(P(=O)(OC(C)C)OC(C)C)cccc23)cc1` [7p, Diisopropyl (2-(4-fluorophenyl)-4-(p-tolyl)quinolin-8-yl)phosphonate], the inhibition at 100 µM stood at 32%.

`CCOP(=O)(OCC)c1cccc2c(-c3ccc(F)cc3)cc(-c3ccc(F)cc3)nc12` [7h, Diethyl (2,4-bis(4-fluorophenyl)quinolin-8-yl)phosphonate]: the inhibition at 100 µM is 27%.

Turning to `CCOP(=O)(OCC)c1ccc2nc(-c3ccc(F)cc3)cc(-c3ccccc3)c2c1` [7r, Diethyl (2-(4-fluorophenyl)-4-phenylquinolin-6-yl)phosphonate], the inhibition at 100 µM was 9%.

For `CCOP(=O)(OCC)c1cccc2c(-c3ccc(F)cc3)cc(-c3ccccc3)nc12` [7g], the inhibition at 100 µM stood at 28%.

Take `CCOP(=O)(OCC)c1cccc2c(-c3ccccc3)cc(-c3ccc(OC)cc3)nc12` [7c, Diethyl (2-(4-methoxyphenyl)-4-phenylquinolin-8-yl)phosphonate]: the inhibition at 100 µM came to 11%.

Staying with this assay, now noted: read-out: % Inhibition hTOP1B 1 min.
`CCOP(=O)(OCC)c1cccc2c(-c3ccccc3)cc(-c3ccccc3)nc12` [7a, Diethyl (2,4-diphenylquinolin-8-yl)phosphonate]: the inhibition at 100 µM was found to be 28%.

Take `CCOP(=O)(OCC)c1cccc2c(-c3ccccc3)cc(-c3ccc4ccccc4c3)nc12` [7e, Diethyl (2-(naphthalen-2-yl)-4-phenylquinolin-8-yl)phosphonate]: the inhibition at 100 µM was 36%.

As for `CCOP(=O)(OCC)c1ccc2nc(-c3ccc(F)c(F)c3)cc(-c3ccc(F)cc3)c2c1` [7u, Diethyl (2-(3,4-difluorophenyl)-4-(4-fluorophenyl)quinolin-6-yl)phosphonate], the inhibition at 100 µM was found to be 21%.

As for `CC(C)OP(=O)(OC(C)C)c1cccc2c(-c3ccc(F)cc3)cc(-c3ccc(F)cc3)nc12` [7n, Diisopropyl (2,4-bis(4-fluorophenyl)quinolin-8-yl)phosphonate], the inhibition at 100 µM is 57%.

On to `Cc1ccc(-c2cc(-c3ccc(F)cc3)nc3c(P(=O)(OC(C)C)OC(C)C)cccc23)cc1` [7p, Diisopropyl (2-(4-fluorophenyl)-4-(p-tolyl)quinolin-8-yl)phosphonate], for which the inhibition at 100 µM worked out at 46%.

On to `CCOP(=O)(OCC)c1cccc2c(-c3ccc(F)cc3)cc(-c3ccc(F)cc3)nc12` [7h, Diethyl (2,4-bis(4-fluorophenyl)quinolin-8-yl)phosphonate], for which the inhibition at 100 µM was found to be 19%.

Take `CCOP(=O)(OCC)c1ccc2nc(-c3ccc(F)cc3)cc(-c3ccccc3)c2c1` [7r, Diethyl (2-(4-fluorophenyl)-4-phenylquinolin-6-yl)phosphonate]: the inhibition at 100 µM is 15%.

For `CCOP(=O)(OCC)c1cccc2c(-c3ccc(F)cc3)cc(-c3ccccc3)nc12` [7g], the inhibition at 100 µM was determined as 36%.

Regarding `CCOP(=O)(OCC)c1cccc2c(-c3ccccc3)cc(-c3ccc(OC)cc3)nc12` [7c, Diethyl (2-(4-methoxyphenyl)-4-phenylquinolin-8-yl)phosphonate], the inhibition at 100 µM was 9%.

The same assay, now with this note: read-out: % Inhibition hTOP1B 3 min.
Consider `CCOP(=O)(OCC)c1cccc2c(-c3ccccc3)cc(-c3ccccc3)nc12` [7a, Diethyl (2,4-diphenylquinolin-8-yl)phosphonate], for which the inhibition at 100 µM turned out to be 1%.

On to `CCOP(=O)(OCC)c1cccc2c(-c3ccccc3)cc(-c3ccc4ccccc4c3)nc12` [7e, Diethyl (2-(naphthalen-2-yl)-4-phenylquinolin-8-yl)phosphonate], for which the inhibition at 100 µM was 4%.

For `CCOP(=O)(OCC)c1ccc2nc(-c3ccc(F)c(F)c3)cc(-c3ccc(F)cc3)c2c1` [7u, Diethyl (2-(3,4-difluorophenyl)-4-(4-fluorophenyl)quinolin-6-yl)phosphonate], the inhibition at 100 µM was 14%.

For `CC(C)OP(=O)(OC(C)C)c1cccc2c(-c3ccc(F)cc3)cc(-c3ccc(F)cc3)nc12` [7n, Diisopropyl (2,4-bis(4-fluorophenyl)quinolin-8-yl)phosphonate], the inhibition at 100 µM turned out to be 7%.

Take `Cc1ccc(-c2cc(-c3ccc(F)cc3)nc3c(P(=O)(OC(C)C)OC(C)C)cccc23)cc1` [7p, Diisopropyl (2-(4-fluorophenyl)-4-(p-tolyl)quinolin-8-yl)phosphonate]: the inhibition at 100 µM was 4%.

For `CCOP(=O)(OCC)c1cccc2c(-c3ccc(F)cc3)cc(-c3ccc(F)cc3)nc12` [7h, Diethyl (2,4-bis(4-fluorophenyl)quinolin-8-yl)phosphonate], the inhibition at 100 µM was determined as 4%.

Take `CCOP(=O)(OCC)c1ccc2nc(-c3ccc(F)cc3)cc(-c3ccccc3)c2c1` [7r, Diethyl (2-(4-fluorophenyl)-4-phenylquinolin-6-yl)phosphonate]: the inhibition at 100 µM was found to be 3%.

As for `CCOP(=O)(OCC)c1cccc2c(-c3ccc(F)cc3)cc(-c3ccccc3)nc12` [7g], the inhibition at 100 µM was found to be 3%.

Turning to `CCOP(=O)(OCC)c1cccc2c(-c3ccccc3)cc(-c3ccc(OC)cc3)nc12` [7c, Diethyl (2-(4-methoxyphenyl)-4-phenylquinolin-8-yl)phosphonate], the inhibition at 100 µM was determined as 4%.

The target of another assay is T1, human TOP1B (hTOP1B).
Test: not given
Conditions: reaction time 15 seconds.
As for `CCOP(=O)(OCC)c1cccc2c(-c3ccccc3)cc(-c3ccccc3)nc12` [7a, Diethyl (2,4-diphenylquinolin-8-yl)phosphonate], the “% Inhibition hTOP1B 15 seconds (semiquantitative, Table S1)” value (“% Inhibition hTOP1B 15 seconds” for short) is “+”.

In the case of `CCOP(=O)(OCC)c1ccc2nc(-c3ccc(F)c(F)c3)cc(-c3ccc(F)cc3)c2c1` [7u, Diethyl (2-(3,4-difluorophenyl)-4-(4-fluorophenyl)quinolin-6-yl)phosphonate], the “% Inhibition hTOP1B 15 seconds” value is given as “+”.

In the case of `Cc1ccc(-c2cc(-c3ccc(F)cc3)nc3c(P(=O)(OC(C)C)OC(C)C)cccc23)cc1` [7p, Diisopropyl (2-(4-fluorophenyl)-4-(p-tolyl)quinolin-8-yl)phosphonate], the “% Inhibition hTOP1B 15 seconds” value was “+”.

For `CCOP(=O)(OCC)c1cccc2c(-c3ccc(F)cc3)cc(-c3ccc(F)cc3)nc12` [7h, Diethyl (2,4-bis(4-fluorophenyl)quinolin-8-yl)phosphonate], the “% Inhibition hTOP1B 15 seconds” value was “+”.

`CCOP(=O)(OCC)c1cccc2c(-c3ccc(F)cc3)cc(-c3ccccc3)nc12` [7g]: the “% Inhibition hTOP1B 15 seconds” value was “+”.

Staying with this assay, now noted: reaction time 1 minute.
Take `CCOP(=O)(OCC)c1cccc2c(-c3ccccc3)cc(-c3ccccc3)nc12` [7a, Diethyl (2,4-diphenylquinolin-8-yl)phosphonate]: the “% Inhibition hTOP1B 1 minute (semiquantitative, Table S1)” value (“% Inhibition hTOP1B 1 minute” for short) is listed as “+”.

In the case of `CCOP(=O)(OCC)c1ccc2nc(-c3ccc(F)c(F)c3)cc(-c3ccc(F)cc3)c2c1` [7u, Diethyl (2-(3,4-difluorophenyl)-4-(4-fluorophenyl)quinolin-6-yl)phosphonate], the “% Inhibition hTOP1B 1 minute” value is given as “+”.

Regarding `Cc1ccc(-c2cc(-c3ccc(F)cc3)nc3c(P(=O)(OC(C)C)OC(C)C)cccc23)cc1` [7p, Diisopropyl (2-(4-fluorophenyl)-4-(p-tolyl)quinolin-8-yl)phosphonate], the “% Inhibition hTOP1B 1 minute” value is reported as “+”.

On to `CCOP(=O)(OCC)c1cccc2c(-c3ccc(F)cc3)cc(-c3ccc(F)cc3)nc12` [7h, Diethyl (2,4-bis(4-fluorophenyl)quinolin-8-yl)phosphonate], for which the “% Inhibition hTOP1B 1 minute” value was “+”.

In the case of `CCOP(=O)(OCC)c1cccc2c(-c3ccc(F)cc3)cc(-c3ccccc3)nc12` [7g], the “% Inhibition hTOP1B 1 minute” value is given as “+”.

Staying with this assay, now noted: reaction time 3 minutes.
On to `CCOP(=O)(OCC)c1cccc2c(-c3ccccc3)cc(-c3ccccc3)nc12` [7a, Diethyl (2,4-diphenylquinolin-8-yl)phosphonate], for which the “% Inhibition hTOP1B 3 minutes (semiquantitative, Table S1)” value (shortened to “% Inhibition hTOP1B 3 minutes”) is recorded as “+”.

On to `CCOP(=O)(OCC)c1ccc2nc(-c3ccc(F)c(F)c3)cc(-c3ccc(F)cc3)c2c1` [7u, Diethyl (2-(3,4-difluorophenyl)-4-(4-fluorophenyl)quinolin-6-yl)phosphonate], for which the “% Inhibition hTOP1B 3 minutes” value is given as “+”.

For `CC(C)OP(=O)(OC(C)C)c1cccc2c(-c3ccc(F)cc3)cc(-c3ccc(F)cc3)nc12` [7n, Diisopropyl (2,4-bis(4-fluorophenyl)quinolin-8-yl)phosphonate], the “% Inhibition hTOP1B 3 minutes” value was “+”.

Still in this assay, the particulars now being: relaxation gel, 15 s, 1 min, 3 min.
Turning to `CCOP(=O)(OCC)c1cccc2c(-c3ccccc3)cc(-c3ccccc3)nc12` [7a, Diethyl (2,4-diphenylquinolin-8-yl)phosphonate], the “inhibition of hTOP1B activity (in words)” value is “slight inhibition”.
